Source: US20260166169A1, “ANTIBODY-DRUG CONJUGATE, PREPARATION METHOD AND USE THEREOF” (priority 2023, published 2026)

Key:
[1] = test system: OV-10-0073 human ovarian cancer PDX model; experiment: In vivo inhibitory effect on OV-10-0073 PDX model and body weight change; design: species or system BALB/c nude mice
From the text: Experimental Example 14: In Vivo Inhibitory Effect on OV-10-0073 Human Ovarian Cancer PDX Model and Effect Thereof on Body Weight Change of Mice
OV-10-0073 (WuXi AppTech (Shanghai) Co., Ltd) is a human ovarian cancer patient derived xenograft model which expresses human MUC18 (H-Score=40). 6-8 weeks BALB/c nude mice were purchased from Beijing Vital River Laboratory Animal Technology Co., Ltd. Tumors of OV-10-0073 were sliced into about 30 mm^3 fragments and implanted subcutaneously into the flank of mice. On day 34 (mean tumor size ˜185 mm^3) following implanting, a single dose of Human IgG-LP1 (2.5, 5 mpk) prepared in Comparative Example 5, and 02-1-LP1 (1.25, 2.5, 5 mpk) prepared in Example 5 were intravenously injected, respectively. After administration, a tumor volume was measured twice a week with a vernier caliper, and the tumor volume was calculated according to the following formula: TV=(length×width)^2/2.

A375 cell = experiment: Endocytosis of 02-1-LP1 by tumor cells overexpressing MUC18; type: cell-based; conditions: 50 μg/mL, 37° C., flow cytometry at 0-8 hours, FIG. 17
Method: (§1) Experimental Example 1: Endocytosis of 02-1-LP1 by Tumor Cells of Overexpressing MUC18
(§2) 50 μg/mL 02-1-LP1 was combined with A375 cell (purchased from Shanghai Institute for Biological Sciences, Chinese Academy of Sciences), HMVII cell (purchased from Center for Type Culture Collection, Biovector NTCC), SK-MEL-2 cell (purchased from Shanghai Xunqing Biotechnology Co., Ltd.), and GAK cell (purchased from Center for Type Culture Collection, Biovector NTCC), respectively. After washing off excess ADC, cells were cultured in an incubator of 37° C. At 0, 0.5, 1, 2, 4, and 8 hours, a median fluorescence intensity (MFI) was measured by flow cytometry.

HMVII cell = experiment: as above; type: cell-based; conditions: 50 μg/mL, 37° C., flow cytometry at 0-8 hours, FIG. 17
Method: as §1, §2

GAK cell = experiment: as above; type: cell-based; conditions: 50 μg/mL, 37° C., flow cytometry at 0-8 hours, FIG. 17
Method: as §1, §2

SK-MEL-2 cell = experiment: as above; type: cell-based; conditions: 50 μg/mL, 37° C., flow cytometry at 0-8 hours, FIG. 17
Method: as §1, §2

[2] = test system: LD1-0060-200770 human cholangiocarcinoma PDX model; experiment: In vivo inhibitory effect on LD1-0060-200770 PDX model and body weight change; design: species or system Nu/Nu mice
From the text: Experimental Example 13: In Vivo Inhibitory Effect on LD1-0060-200770 Human Cholangiocarcinoma PDX Model and Effect Thereof on Body Weight Change of Mice
LD1-0060-200770 (LideBiotech CO., LTD) is a human cholangiocarcinoma patient derived xenograft model which expresses human MUC18 (H-Score=15). 6-8 weeks Nu/Nu mice were purchased from Beijing Vital River Laboratory Animal Technology Co., Ltd. Tumors of LD1-0060-200770 were sliced into about 3 mm×3 mm×3 mm fragments and implanted subcutaneously into the flank of mice. On day 42 (mean tumor size ˜155 mm^3) following implanting, 02-1-LP1 prepared in Example 5 was intravenously injected. The administration dose was 10 mpk, once a week for two times (QW×2). After administration, a tumor volume was measured twice a week with a vernier caliper, and the tumor volume was calculated according to the following formula: TV=(length×width)^2/2.

[3] = test system: SCC-9 human head and neck squamous cell carcinoma CDX model; experiment: In vivo inhibitory effect on SCC-9 CDX model and body weight change; design: species or system Balb/c nude mice; conditions: 2.5, 5, 10 mpk intravenous
From the text: Experimental Example 7: In Vivo Inhibitory Effect on SCC-9 Human Head and Neck Squamous Cell Carcinoma CDX Model and Effect Thereof on Body Weight Change of Mice
6-week-old Balb/c nude mice were purchased from Shanghai BK/KY Biotechnology Co., Ltd. Each mouse was subcutaneously inoculated with eight million SCC-9 cells (purchased from ATCC) to obtain CDX model. […] DPBS (Dulbecco's Phosphate-Buffered Saline) was negative control. The administration was once a week for two times (QW×2). After administration, a tumor volume was measured twice a week with a vernier caliper, and the tumor volume was calculated according to the following formula: TV=(length×width)^2/2.

[4] = test system: MUC18-positive A375 melanoma mouse xenograft model; experiment: In vivo inhibitory effect on A375 xenograft tumor and body weight change of mice; design: species or system Balb/c mice; conditions: intravenous
Method: Experimental Example 2: In Vivo Inhibitory Effect of A375 Xenograft Tumor and Effect Thereof on Body Weight Change of Mice
6-week-old Balb/c mice were purchased from Jiangsu GemPharmatech Co. Ltd., and each mouse was subcutaneously inoculated with 4 million A375 cells to construct a MUC18-positive A375 melanoma mouse xenograft model. […] After administration, a tumor volume was measured twice a week with a vernier caliper, and the tumor volume was calculated according to the following formula: TV=(length×width) 2/2. Since A375 cell hardly express CD20, Rituximab was used as an isotype control for 02-1 antibody at that time.

[5] = test system: LD1-2025-362797 human small cell lung cancer PDX model; experiment: In vivo inhibitory effect on LD1-2025-362797 PDX model and body weight change; design: species or system Nu/Nu mice
From the text: Experimental Example 11: In Vivo Inhibitory Effect on LD1-2025-362797 Human Small Cell Lung Cancer PDX Model and Effect Thereof on Body Weight Change of Mice
LD1-2025-362797 (LideBiotech CO., LTD) is a human small cell lung cancer patient derived xenograft model which expresses human MUC18 (H-Score=110). 6-8 weeks Nu/Nu mice were purchased from Beijing Vital River Laboratory Animal Technology Co., Ltd. Tumors of LD1-2025-362797 were sliced into about 3 mm×3 mm×3 mm fragments and implanted subcutaneously into the flank of mice. On day 21 (mean tumor size ˜144 mm^3) following implanting, a first dose of 10 mpk 02-1-LP1 prepared in Example 5 was intravenously injected. And a second dose of 10 mpk 02-1-LP1 was also intravenously injected when the tumor volume regrew to about 700 mm^3 (49th day after the first dose). After administration, a tumor volume was measured twice a week with a vernier caliper, and the tumor volume was calculated according to the following formula: TV=(length×width)^2/2.

B1: 02-1-LP1 (conjugate)
heavy: QVQLVQSGAEVKKPGASVKVSCKASGYTFTDYNMDWVRQSPGQSLEWMGDINPNNGATLYNQNFRGRVTITRDTSASTAYMELSSLRSEDTAVYYCTRSGYDDYYALDYWGQGTTVTVSS[human IgG1 constant region left out]
light: DTQLTQSPSFLSASVGDRVTITCSASSSVGYMHWYQQKPGKAPKLLIYSTSNLASGVPSRFSGSGSGTEYTLTISSLQPEDFATYYCHQWSNYPSTFGQGTKLEIKRTVAAPSVFIFPPSDEQLKSGTASVVCLLNNFYPREAKVQWKVDNALQSGNSQESVTEQDSKDSTYSLSSTLTLSKADYEKHKVYACEVTHQGLSSPVTKSFNRGEC
tumor growth (tumor volume) ([1]; MUC18 H-Score=40, single dose 1.25, 2.5, 5 mpk intravenous, FIG. 31A): can effectively inhibit tumor growth
body weight of mice ([1]; single dose 1.25, 2.5, 5 mpk intravenous, FIG. 31B): little effects on the body weight of mice
endocytosis (median fluorescence intensity over time) (A375 cell): can be endocytosed
endocytosis (median fluorescence intensity over time) (HMVII cell): can be endocytosed
endocytosis (median fluorescence intensity over time) (GAK cell): can be endocytosed
endocytosis (median fluorescence intensity over time) (SK-MEL-2 cell): can be endocytosed
body weight of mice ([2]; 10 mpk intravenous, QW×2, FIG. 30B): little effects on the body weight of mice
tumor growth (tumor volume) ([2]; MUC18 H-Score=15, 10 mpk intravenous, QW×2, FIG. 30A): can effectively inhibit tumor growth
tumor growth (tumor volume) ([3]; QW×2, FIG. 24A): can effectively inhibit tumor growth
body weight of mice ([3]; QW×2, FIG. 24B): little effects on the body weight of mice
body weight of the mice ([4]; A375 xenograft mice, FIG. 18B1): did not significantly affect the body weight of the mice
growth inhibitory effect on A375 xenograft (tumor volume) ([4]; 02-1-vc-MMAE 1.5, 3, 6 mpk, 02-1-LP1 2.5, 5 mpk, FIG. 18A1): caused significant elimination of tumor volume
body weight of mice ([5]; 10 mpk intravenous, two doses, FIG. 28B): little effects on the body weight of mice
tumor growth (tumor volume) ([5]; MUC18 H-Score=110, first dose 10 mpk intravenous, FIG. 28A): can effectively inhibit tumor growth
activity against regrown tumor after the second dose ([5]; second dose 10 mpk on 49th day after first dose, tumor regrown to about 700 mm^3): still active against the regrown tumor
